Read counts are not given, so values of variants with three or more changes are uncertain.
B1: OR4K15 (parent)
chain: GUUAACGGUCAUAGGCCAUGGAAACUAGGAGCACCAUUUCGCUGCCAGUGAAGAAAUGAACAAAGAAAAUCUGGGCCAGGCAGGCAUCAAAAGAAAUAGUCUUGCGCUCAACCAGAAAGUCUGUAAUCAUUUUAAGGGUA

Variants of: B1
Assay: self-cleavage, relative activity (ratio to wild type); higher = more cleavage; in vitro, sequencing; the parent is a self-cleaving ribozyme

Row | Variant | self-cleavage
1 | U19C A22G U103C | 1.14
2 | A22G A78U A96G | 0.13
3 | A22G A33G A94G | 0.85
4 | A22G A63G A69G U130C | 1.89
5 | U19C A54G A91G A117U | 0.63
6 | U19C U37C U43C A67G A91G A98G | 0.83
7 | A22G C32U A33G A56G A96G | 1.25
8 | U19C A33G A63G A91G | 0.27
9 | U19C G41C G53U | 0.62
10 | U19C A63G A111G | 0.04
11 | A22C A56G A66G | 1.11
12 | U19C U39C A52G U57C A62G | 0.94
13 | U19C A24G A52U A140G | 0.73
14 | A22G A59G A78G A90G U122C | 0.09
15 | A22G A55G A59U A82G | 0.31
16 | A22G A67U A69G | 1.37
17 | A22G A51U A118G | 0.98
18 | A22G A23G A47G | 0.94
19 | A22G C35A U124C | 0.89
20 | U19C C77A A78G A116G U130C | 0.14
21 | U19C A59G A110G | 0.21
22 | A22G A30U U139C | 0.58
23 | U19C A60C G74C U130C | 0.15
24 | G20U A27G U43C C105G | 0

Row | Variant | self-cleavage
25 | G20C A30C A51G A118G U124A | 0.67
26 | U19C A56G U57A A116G | 0.96
27 | A22G A54G U57C | 0.92
28 | U19C U102C U127C U139A | 1.16
29 | G20U A33G C40A A126G | 1.33
30 | U19A U43A G79A A114G | 0.11
31 | G20U A24G A33G A60G A98U | 0.74
32 | A22G A110G U131C | 0.16
33 | A22G A33G A69U A86G U103C | 0.77
34 | U19C U57C A92G U100C | 1.55
35 | U19G A66G U102A | 1.47
36 | A22G A59G A95G | 1.02
37 | U19C A54G A134G | 0.7
38 | G20A U39A A110G A116G | 0.08
39 | A22G A90G A92G A98G | 0.69
40 | G20A U102A U108C | 0.01
41 | A22G A33G A56G A68G A78U A111G U130C | 0.01
42 | A22G A51G A125G | 0.45
43 | A22G A67G A86U A94G | 1.97
44 | U19C A22U U102C C107U A117G | 0.02
45 | A22G A64C A78C U122A | 0.37
46 | A22G A91G U103C | 0.4
47 | U19G A56G U87C | 1.25
48 | U19C U57C A69G A91G G138U | 0.52

Row | Variant | self-cleavage
49 | A22G A24G A62G A82G A86G U87A A94G | 0
50 | U19A U108C U124C | 0.01
51 | A22G A56G A62G U102C | 1.06
52 | U19C U72A U130C | 0.07
53 | U19C U37C A52G U87C A91C U120G | 1.11
54 | U19C A126G U127C U131C | 0.52
55 | A22G A30G A52G | 1.2
56 | A22G A23G U49C A89U U131C | 1.62
57 | A22G A52G A111G | 0.07
58 | G21U U43C A51U A91G A94G C113U | 0.02
59 | A22G A60U A92G U100C A118G | 1.99
60 | G20A U49A A52U A114G | 0.12
61 | U19C A62G A89G | 1.7
62 | A22G A78U A95G U120A | 0.49
63 | G21U U38C A94G | 1.01
64 | U19C G50A C61U | 1.9
65 | A22G A60G U72A A134G | 0.37
66 | A22G A24G A95G U103C A114U | 0
67 | A22G A82C U122A | 0.18
68 | A22G A64G A114G | 0.7
69 | A22G A129G U130C U139A | 0.57
70 | G21A U43C A51G A56G A67G A96G A118U A126U U127C | 0.06
71 | U19C A36G A47G A62G | 1.53
72 | U19A U102C U127C U132C | 0.59

Row | Variant | self-cleavage
73 | G20U A66G A86U | 1.46
74 | A22C A66G U97A | 1.98
75 | G21U A59G A69G A94G A96G | 1.69
76 | U19C G20A A51G | 2.34
77 | A22G A27G A63G A92U A140U | 0.78
78 | U19G A52G U57C A117G | 1.47
79 | U19C A59G A62G | 1.07
80 | A22G A69G A78G | 0.28
81 | A22G A23G A54U G137A A140G | 0.66
82 | A22G A66G A82G A86G | 0.34
83 | A22G A52G A98G | 0.22
84 | U19C U70C A95G A111G | 0.01
85 | A22G A23G A86G A89G A95G U108C A135C | 0.01
86 | U19C U37C A96G | 0.42
87 | U19C U49A G80A A91U U120C | 0.1
88 | A22G A23G A60U U132C | 2.04
89 | U19C G29U A47U | 0.88
90 | U19C U122A A135G | 0.08
91 | G20A U49C A56G | 0.61
92 | A22G A30G U37C A111U U133C | 0.13
93 | A22G A33G A62G A90U A98U U122C | 1.94
94 | A22G A60G U120C U130A | 1.1
95 | A22G A59G A63G A117G | 1.81
96 | A22G A55G U72C | 0.65

Row | Variant | self-cleavage
97 | G21A A62U A95G U108C | 0.01
98 | U19G A59U A111G A118U | 0.06
99 | U19C C32G A59G A67G A116U | 0.18
100 | U19C A33U U39A | 1.48
101 | U19C A22G U49A A96G C101U U130C U139A | 0.13
102 | G20U A47G G106U | 0.03
103 | A22G A51U U102C | 1.29
104 | A22G A24G A82U A126G | 0.07
105 | G21U A52G A86G U100A | 0.4
106 | A22G A23U A54G A125G | 0.49
107 | U19C G31C U43C U87C | 1.6
108 | A22G A33G A140G | 1.31
109 | A22G A64G A90U C113A | 0.18
110 | A22G A24G U102C | 1.91
111 | U19C A55G A62G U102C | 2.05
112 | G20A A24G A59G A78U A91G A117G | 0.05
113 | A22G A78G U108C | 0.02
114 | U19C A95U A126G A135U | 1.09
115 | A22G A23G G41U A117G | 1.31
116 | A22G A60G U108C C113U A114G A125U A126G | 0
117 | A22G A92G A95G A118G A135G | 2.67
118 | U19G A66G A135G | 1.6
119 | U19C G41U G75A U122C | 0.02
120 | U19C A33G A69G | 0.47

Row | Variant | self-cleavage
121 | U19C G21A C121A | 2.1
122 | A22G A33C A60G A89G | 1.08
123 | A22G A54G A69U A86U | 1.89
124 | A22G A23G U87C | 0.28
125 | A22G A30U U108C | 0.06
126 | A22G A69U G79U A95G | 0.02
127 | A22G A47G A68G A91G U103C A118G U131A | 0.03
128 | A22G A125C U127C | 0.58
129 | U19C U37C U43C A51G A63G A68G | 1.73
130 | U19C C71U U132C | 0.2
131 | U19C U39A A69G | 1.65
132 | A22G A78G A117U A140U | 0.14
133 | G20U G41A A64G U120C | 1.22
134 | A22G A56G U72G | 0.27
135 | A22G A52G A60C A96G | 0.47
136 | A22G A67G U87G U131C | 0.27
137 | U19G A23G U38C A56G | 1.27
138 | U19C U38C U70C | 0.67
139 | A22G A51U A117G | 1.52
140 | U19C A66G A110U | 0.34
141 | A22G A23G A116G | 0.16
142 | A22G A30G U122C | 1.02
143 | U19C A33U A96G | 1.42
144 | A22G A30G A118G | 1.2

Row | Variant | self-cleavage
145 | A22G A60G U131C | 1.36
146 | U19G A82C A117G U127C | 0.08
147 | A22G A94G U130C U131C | 1.43
148 | U19C C42A A54G U87C U100C A140G | 1.88
149 | G21A A59G U108A | 0.02
150 | A22G A51U A111U A114U | 0.02
151 | U19C A30G G41A | 1.22
152 | U19C U39C U87A | 2.09
153 | U19C A36G A78G | 0.38
154 | U19C A96G U130C | 1.52
155 | A22G A24G A52C A78G | 0.33
156 | A22G A52C U120C | 0.4
157 | A22G A91G A116U A135G G137U | 0.24
158 | A22G A52G A60G G106A | 0
159 | A22G A51G G53A U103C | 1.17
160 | U19C A47G G74U | 0.2
161 | A22G A78U A114G | 0.15
162 | U19C A69U U72A U122C | 0.27
163 | U19A U97A U139C | 1.98
164 | U19C U37C A96G A135G | 1.35
165 | U19A U72A A111G A117G | 0
166 | A22G A63U G75C U87C | 0.19
167 | U19C A24C C42U A89G A90G | 0.89
